These results are taken from paper PMC4336329 (PLoS ONE, 2015).

Hit rate of the full screen: of about 310,000 compounds, about 14,000 (4.5%) showed an effect of 50% or more. Effects have a minus sign here. Some of the results follow.
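Note: peak tail current of the secondary pulse compared with the same well before compound.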

Chain of human ether-à-go-go-related gene (hERG) potassium channel (Q12809 whole entry, looked up): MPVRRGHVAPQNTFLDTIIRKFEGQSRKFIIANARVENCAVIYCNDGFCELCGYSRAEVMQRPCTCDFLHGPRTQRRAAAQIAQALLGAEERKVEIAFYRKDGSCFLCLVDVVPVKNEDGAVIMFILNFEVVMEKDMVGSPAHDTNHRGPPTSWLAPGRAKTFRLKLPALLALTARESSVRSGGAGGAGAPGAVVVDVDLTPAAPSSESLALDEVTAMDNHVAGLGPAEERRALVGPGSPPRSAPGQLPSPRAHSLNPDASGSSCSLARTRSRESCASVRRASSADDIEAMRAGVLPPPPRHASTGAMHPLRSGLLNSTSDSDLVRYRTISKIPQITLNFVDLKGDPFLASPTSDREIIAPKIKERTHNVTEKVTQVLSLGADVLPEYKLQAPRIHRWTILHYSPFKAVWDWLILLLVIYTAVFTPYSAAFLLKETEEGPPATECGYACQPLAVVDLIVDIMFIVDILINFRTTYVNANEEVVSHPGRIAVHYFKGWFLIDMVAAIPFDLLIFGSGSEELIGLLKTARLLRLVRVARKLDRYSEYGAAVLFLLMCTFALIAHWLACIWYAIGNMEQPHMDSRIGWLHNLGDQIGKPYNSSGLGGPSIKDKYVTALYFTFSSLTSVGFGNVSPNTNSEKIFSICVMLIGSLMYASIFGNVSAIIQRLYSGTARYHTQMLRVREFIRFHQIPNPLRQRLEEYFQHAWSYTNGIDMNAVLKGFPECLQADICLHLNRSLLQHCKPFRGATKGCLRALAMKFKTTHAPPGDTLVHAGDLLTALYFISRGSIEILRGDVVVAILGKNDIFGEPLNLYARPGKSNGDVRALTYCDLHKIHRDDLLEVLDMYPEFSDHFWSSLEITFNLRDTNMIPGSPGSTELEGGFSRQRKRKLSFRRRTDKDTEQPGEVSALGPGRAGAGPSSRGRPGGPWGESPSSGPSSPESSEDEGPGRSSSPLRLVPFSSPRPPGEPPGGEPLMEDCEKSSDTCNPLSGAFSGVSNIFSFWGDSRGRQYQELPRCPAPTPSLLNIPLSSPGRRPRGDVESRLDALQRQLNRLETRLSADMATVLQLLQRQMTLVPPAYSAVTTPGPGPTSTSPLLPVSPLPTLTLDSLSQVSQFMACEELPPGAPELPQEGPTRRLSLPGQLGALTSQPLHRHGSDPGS

This test has as its target human ether-à-go-go-related gene (hERG) potassium channel (human, UniProt Q12809). In words: primary screen, population patch clamp on CHO cells stably expressing hERG.
`COc1ccc(/C=N/n2cnnc2)cc1Br`: the “hERG current change (%, negative = inhibition) at 10uM” value is 5.73%.
As for `COc1ccc(-c2noc(CN(C(=O)C(C)(C)C)C(C)C)n2)cc1`, the figure is 6.61%.
The same measure for `Cc1c(NC(=O)CCSCCc2ccccn2)cccc1[N+](=O)[O-]`: -15%.
As for `Cn1cc(/C=C(\NC(=O)c2ccccc2Cl)C(=O)NCCCn2ccnc2)c2ccccc21`, the figure is 8.3%; as for `COc1n[nH]c2nncnc12`, 2.19%; as for `CC(NC(=O)C1CCC(C(C)(C)C)CC1)C(c1ccccc1)N1CCOCC1` (stereo not drawn), -11.1%.
With `Cc1cc(C(=O)Nc2c[nH]c(=O)[nH]c2=O)ccc1[N+](=O)[O-]`, the “hERG current change (%, negative = inhibition) at 10uM” value is given as 23.2%.
As for `O=C(N/N=C/c1cccc(O)c1)c1ccc(NC(=O)c2cccc([N+](=O)[O-])c2)cc1`, the “hERG current change (%, negative = inhibition) at 10uM” value turned out to be 15.7%.
The same measure for `CCCN(CC(=O)Nc1ccccc1OC)C(=O)c1ccc2[nH]c3c(c2c1)CC(C)CC3` (stereo not drawn): -3.74%.
Consider `CCNC(=S)N/N=C/c1cn(Cc2ccccc2F)c2ccccc12`, for which the “hERG current change (%, negative = inhibition) at 10uM” value is 5.02%.
As for `CCC1Sc2ccccc2N(CC(=O)NCCC2=CCCCC2)C1=O` (stereo not drawn), the figure is -0.692%.
As for `C=C1CCN(c2ccc(C(=O)NCCC)cc2[N+](=O)[O-])CC1`, the figure is -48.3%; as for `CCCc1cc(C(=O)N2CCCC(Cc3cccc(Cl)c3)(C(=O)OCC)C2)n(C)n1` (stereo not drawn), -20.4%.
As for `COc1ccccc1NC(=O)c1ccc2c(c1)N(CC#N)C(=O)C(C)(C)O2`, the figure is -1.23%; as for `C#CCNC(=O)C1=C[C@H](c2ccc(C(F)(F)F)cc2)[C@@H](CCCO)[C@H](OCC)O1`, -25%; as for `CCCCS(=O)(=O)N1CCN(S(=O)(=O)c2cccs2)CC1`, 12.1%.
With `CCc1ccc(N2C(=O)CC(N3CCN(Cc4ccc5c(c4)OCO5)CC3)C2=O)cc1` (stereo not drawn), the “hERG current change (%, negative = inhibition) at 10uM” value is -26.4%.
As for `CN(C)/C=C/C(=O)c1nnn(C2CCCCC2)c1NC1CCCCC1`, the “hERG current change (%, negative = inhibition) at 10uM” value is given as -46.4%.
On to `CSc1n[nH]c2nc3c(c(=O)n12)C1(CCCCC1)Cc1ccccc1-3`, for which the “hERG current change (%, negative = inhibition) at 10uM” value is reported as -13%.
`O=C(O)c1cc(Cl)c(Cl)cc1C(=O)Nc1cccc2cccnc12`: the “hERG current change (%, negative = inhibition) at 10uM” value turned out to be 10.7%.
For `COc1ccc(OC)c(NC(=O)CNC(=O)Cn2cnc3ccccc3c2=O)c1`, the “hERG current change (%, negative = inhibition) at 10uM” value came out at 5.82%.
As for `CC(C)n1cc(CN2CCCC(CNS(=O)(=O)c3cccc4cccnc34)C2)cn1` (stereo not drawn), the “hERG current change (%, negative = inhibition) at 10uM” value is listed as -0.6%.
For the molecule `CN(C)c1ccc2c3c(ccc(N(C)C)c13)C(=O)OC2`, the “hERG current change (%, negative = inhibition) at 10uM” value is on record as -59.1%.
For `c1ccc2oc(-c3[nH]ncc3CN(Cc3ccncc3)CC3CCCO3)cc2c1` (stereo not drawn), the “hERG current change (%, negative = inhibition) at 10uM” value is given as -22.6%.
As to `COc1ccc(NC(=O)C(=O)N/N=C\c2ccc(CNC(=O)C(=O)Nc3ccc(C)c(C)c3)o2)c(OC)c1`, the “hERG current change (%, negative = inhibition) at 10uM” value is recorded as 9.12%.
Take `Cn1c(SCc2ccc(Cl)cc2Cl)nc(C(F)(F)F)cc1=O`: the “hERG current change (%, negative = inhibition) at 10uM” value was 12.4%.
As for `CC(=O)OC(C(=O)NC1CCCCC1)c1cccc(C)c1` (stereo not drawn), the figure is 1.79%; as for `Cc1ccc(C2=NS(=O)(=O)N(C)C(C(=O)NCc3ccccn3)=C2)cc1`, -22.6%; as for `COc1cc(NC(=O)N[C@H](C(=O)O)C(C)C)cc(OC)c1`, 4.74%.
On to `Nc1ccc(S(=O)(=O)Nc2ccc(C(=O)c3ccccc3)cc2)cc1`, for which the “hERG current change (%, negative = inhibition) at 10uM” value is -2.92%.
Consider `COc1ccc(C(=O)NC(=S)NNC(=O)Cc2cccs2)cc1`, for which the “hERG current change (%, negative = inhibition) at 10uM” value is given as 17%.
As for `O=C(CSc1nnc(CNC(=O)c2c(F)cccc2Cl)o1)NCc1ccccc1`, the figure is 9.37%.
The same measure for `Cc1cccc(N2CCN(C(=O)/C=C/c3cccs3)CC2)c1C`: -23.9%; for `Cc1ccc(S(=O)(=O)NC2c3cccc4cccc(c34)C2Sc2ncccn2)cc1` (stereo not drawn): 0.979%; for `O=C(O)c1ccc2c(c1)C(=O)N(c1cccc3ccccc13)C2=O`: -11.4%.
Turning to `COc1ccc(N2CCN(C(CNC(=O)OCc3ccccc3)c3ccco3)CC2)cc1` (stereo not drawn), the “hERG current change (%, negative = inhibition) at 10uM” value is on record as -27.4%.
For `Cc1nn(Cc2ccccc2Cl)c(C)c1C(=O)OCC(=O)NC1CCCC(C)C1C` (stereo not drawn), the “hERG current change (%, negative = inhibition) at 10uM” value is 5.15%.
As for `CC(=O)c1ccc(NC(=O)C(C)OC(=O)c2cccc(-n3cnnn3)c2)cc1` (stereo not drawn), the figure is -13.7%; as for `C[C@@H](C(=O)NCCc1c[nH]c2ccccc12)[C@H]1C[C@]1(C)[C@H](NC(=O)OCc1ccccc1)c1ccccc1`, -3.24%.
The same measure for `CN(C)S(=O)(=O)c1ccc(Cl)c(NC(=O)CSc2nc3c(cc2C#N)C(=O)CC(C)(C)C3)c1`: -65.3%; for `Cc1noc(C)c1S(=O)(=O)NC1CCN(Cc2ccccc2)CC1`: 3.28%; for `COc1ccc(N(C(=O)CNC(=O)c2ccco2)C(C(=O)NCC2CCCO2)c2ccc(OC)c(OC)c2)cc1` (stereo not drawn): 24.5%.
